In PubChem BioAssay AID651820 (National Center for Advancing Translational Sciences (NCATS), 2012):
In all, about 340,000 compounds went through this assay and about 12,000 (3.5%) were called active. The inconclusive results got no clear call from the source; some entries with a clear call stand among them for comparison. The call rests on the fitted dose curve; in most records, active means well fitted inhibition curve with a large enough effect; inconclusive means small, poorly fitted or top-dose-only effect, or another doubt; inactive means no such curve, though single readings can be large or run the other way. No potency is given beside an inconclusive call; the fits are too rough.
On the % scale 0 is the no-effect control and ±100 the full control effect; potency means the concentration at half of the fitted maximal effect; tags describe the fitted curve by direction and shape.

Experiment: qHTS Assay for Inhibitors of Hepatitis C Virus (HCV)
Conditions: Huh7.5.1 HCVcc-Cre (HCVcc is cell-culture hepatitis C virus) infection, luciferase reporter, 44 h; activity change, negative = inhibition: at 41.8 µM (top of the series) unless noted
Procedure, shortened: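 Reporter virus HCVcc-Cre (~0.5 moi) infects cells exposed to compound; seeding density 1,000 cells/well with 4 h settling beforehand. Luminescence, 15 sec read, taken 44 h post-infection following a 15 min RT substrate incubation.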
For CCCN(C(=O)COc1ccc(Cl)cc1Cl)c1c(N)n(Cc2ccccc2)c(=O)[nH]c1=O, the Potency was inconclusive [inhibitor, single point]. For Nc1c(C(=O)c2ccccc2)sc2nsc(SCCN3CCOCC3)c12, the activity change, negative = inhibition was inconclusive: -58.3% [inhibitor]. For O=C(Nc1nc(-c2ccccc2)cs1)c1cccnc1, the Potency was inconclusive [inhibitor, partial curve]. For CCN1C(=O)[C@H]2[C@@H](c3ccc(C)cc3)N3C(=O)N(c4ccc(C)cc4)C(=O)[C@@]3(Cc3ccc(Cl)cc3)[C@H]2C1=O, the “activity change, negative = inhibition” value was inactive: 8.91%. In the case of CCOCCCNC(=O)/C(C#N)=C/c1ccc(Cl)c([N+](=O)[O-])c1, the Potency is reported as inconclusive [inhibitor, single point]. For CN(C)S(=O)(=O)Oc1ccsc1C(=O)Nc1ccc(Br)cc1, the Potency was inconclusive [inhibitor, single point]. With COc1ccc(NC(=O)C2CCCN(S(=O)(=O)c3cccc4nonc34)C2)cc1OC (stereo unspecified) the Potency was inconclusive [inhibitor, partial curve, poor fit]. With COc1cc(/C=C2\CCc3ccccc3C2=O)cc(OC)c1OC the Potency was inconclusive [inhibitor, single point]. In the case of O=c1c(C(c2ccc(Cl)cc2)c2c(O)nc3n(c2=O)CCCS3)c(O)nc2n1CCCS2, the “activity change, negative = inhibition” value is reported as inactive: 17.2%. With COC(=O)c1cc(C(=O)OCC(=O)Nc2ccc(N3CCOCC3)cc2)cc([N+](=O)[O-])c1 the “activity change, negative = inhibition” value was inactive: -27.2%. In the case of Cc1cc2cc(CN(CC3CCCO3)C(=S)Nc3ccccc3)c(=O)[nH]c2cc1C (stereo unspecified), the Potency is reported as inconclusive [inhibitor, partial curve]. In the case of Cc1ccc(S(=O)(=O)NCC(=O)OCC(=O)c2c(N)n(C)c(=O)n(C)c2=O)cc1, the “activity change, negative = inhibition” value is reported as inactive: 3.29%. In the case of CN(Cc1cccnc1)C(=O)CNC(=O)c1ccc(Cl)cc1Cl, the “activity change, negative = inhibition” value is reported as inactive: -3.71%. In the case of COc1cccc(NC(=O)CNC(=O)[C@@H]2Cc3ccccc3CN2C(=O)OC(C)(C)C)c1, the “activity change, negative = inhibition” value is reported as inactive: -1.13%. In the case of COc1ccc(NC(=O)CN(c2ccc(OC)c(Cl)c2)S(=O)(=O)c2ccccc2)cc1, the Potency is reported as inconclusive [inhibitor, single point]. With O=C(COC(=O)C1(c2ccc(F)cc2)CCCC1)N1CCN(C(=O)c2ccco2)CC1 the Potency was inconclusive [inhibitor, partial curve]. With c1ccc2c(c1)-c1cccc3cncc-2c13 the Potency was inconclusive [inhibitor, partial curve]. In the case of COc1ccc(CC(=O)N[C@@H](CCSC)c2nc3ccccc3[nH]2)cc1, the Potency is reported as inconclusive [inhibitor, partial curve]. For Cc1ccc(C)c(N2CCN(C(=O)CCc3nc(-c4ccccc4C(F)(F)F)no3)CC2)c1, the Potency was inconclusive [inhibitor, partial curve]. For O=C(c1cnc(N2CCN(c3ccccn3)CC2)c2ccccc12)N1CCN(c2cccc(Cl)c2)CC1, the Potency was active: 5.01 µM. In the case of CCOc1ccccc1NC(=O)Cn1c(-c2ccc(Cl)cc2)noc1=O, the Potency is reported as inconclusive [inhibitor, single point]. For Oc1cccc(Nc2nc(NCC3CCCO3)c3ccccc3n2)c1 (stereo unspecified), the Potency was inconclusive [inhibitor, partial curve]. In the case of COc1ccc(CC(=O)N(C)Cc2ccc(Cl)cc2)cc1S(=O)(=O)N1CCOCC1, the “activity change, negative = inhibition” value is reported as inactive: -6.5%. With Cc1cccc(N(C)C(=O)c2cc3c(=O)[nH]c4ccc(C)cc4c3s2)c1 the Potency was inconclusive [inhibitor, partial curve]. For c1ccc(-c2cn(C[C@H]3CC[C@@H]([C@@H]4CC[C@H](Cn5cc(-c6ccccc6)nn5)O4)O3)nn2)cc1, the “activity change, negative = inhibition” value was inactive: 10.5%. With O=C(Nc1nc(-c2ccc3c(c2)OCCO3)cs1)C1CCCC1 the Potency was inconclusive [inhibitor, single point]. For COc1ccc(CCNC(=O)c2cc3c(=O)n(C)c4ccccc4c3n2C)c(OC)c1, the Potency was inconclusive [inhibitor, partial curve, poor fit]. In the case of COc1ccc(C2(C)NC(=O)N(CC(=O)Nc3ccc(Br)c(C)c3)C2=O)cc1OC (stereo unspecified), the Potency is reported as inconclusive [inhibitor, single point]. In the case of Cc1ccc(C(=O)CC(=O)c2ccc(C(C)(C)C)cc2)cc1, the Potency is reported as inconclusive [inhibitor, single point]. For COc1ccccc1CNCc1cc(OC)c(OC)cc1OC, the “activity change, negative = inhibition” value was inactive: -9.64%. For O=C(NNC(=O)C1CC1c1ccccc1)c1ccccc1F (stereo unspecified), the “activity change, negative = inhibition” value was inactive: 8.67%. With CCCSc1ccc([C@H]2N[C@@](Cc3ccccc3)(C(=O)OC)[C@H]3C(=O)N(CC)C(=O)[C@@H]23)cc1 the Potency was inconclusive [inhibitor, full curve]. With O=C(O)c1nn(CCOc2ccc(Br)cc2)c(=O)c2ccccc12 the “activity change, negative = inhibition” value was inactive: -11.2%. With CCN(C[C@H]1N[C@@](C)(C(=O)OC)[C@H]2C(=O)N(C)C(=O)[C@@H]12)C(=O)Nc1ccc(F)cc1 the “activity change, negative = inhibition” value was inactive: -1.63%. In the case of Nc1c(N(Cc2ccccc2)C(=O)CCc2ccccc2)c(=O)[nH]c(=O)n1Cc1ccccc1, the “activity change, negative = inhibition” value is reported as inactive: 12.1%. With O=C(COc1coc(CN2CCc3ccccc3C2)cc1=O)Nc1cccc(F)c1 the Potency was inconclusive [inhibitor, single point]. For O=C(NC(NC(=S)Nc1cccc(Cl)c1)C(Cl)(Cl)Cl)OCc1ccccc1 (stereo unspecified), the Potency was inconclusive [inhibitor, single point]. In the case of COc1ccccc1NS(=O)(=O)c1ccc(C(=O)NCCCn2ccnc2)cc1, the Potency is reported as inconclusive [inhibitor, full curve]. For COC(=O)c1ccc(OCC(O)CN2CCN(CC(O)COc3ccc(C(=O)OC)cc3)CC2)cc1 (stereo unspecified), the Potency was inconclusive [inhibitor, single point]. For Nc1ccc(Nc2nc(-c3ccncc3)cs2)cc1, the Potency was active: 7.94 µM. With CCCn1c(=O)c2ccccc2n2c(SCc3c(C(=O)OCC)oc4ccccc34)nnc12 the Potency was inconclusive [inhibitor, partial curve]. In the case of COc1ccc(OC)c(NC(=O)Cn2cccc2)c1, the Potency is reported as inconclusive [inhibitor, full curve]. For COc1ccc(CN2CCN(CC=C(C)C)C(CCO)C2)cc1Cn1cncn1 (stereo unspecified), the Potency was inconclusive [inhibitor, single point]. For CCCN(CC1CCCO1)C(=O)CCc1nnc(-c2cc(C)on2)o1 (stereo unspecified), the “activity change, negative = inhibition” value was inactive: 6.87%. With C=CC(=O)Oc1ccc(N2Cc3ccccc3C2=O)cc1 the “activity change, negative = inhibition” value was inactive: -0.262%. With COc1ccc(C)cc1NC(=O)COC(=O)C1COc2ccccc2O1 (stereo unspecified) the “activity change, negative = inhibition” value was inactive: 0.323%. With Cc1ccc(-c2noc(CSc3nnc(-c4ccncc4)n3-c3ccc(C)cc3)n2)cc1 the Potency was inconclusive [inhibitor, single point]. In the case of Cc1ccccc1OCC(=O)NS(=O)(=O)c1ccc(Cl)cc1, the “activity change, negative = inhibition” value is reported as inactive: 17%. With CC1CCN(C(=O)COC(=O)CNC(=O)c2ccccc2F)CC1 the “activity change, negative = inhibition” value was inactive: 15.9%. In the case of Cc1ccc(Cl)cc1N1CCN(S(=O)(=O)c2c(C)nc3scc(C)n3c2=O)CC1, the Potency is reported as inconclusive [inhibitor, single point]. In the case of CC(Sc1nnc(Cc2ccccc2)o1)C(=O)Nc1ccccc1[N+](=O)[O-] (stereo unspecified), the “activity change, negative = inhibition” value is reported as inactive: 6.43%. With O=C1/C(=C/c2cccs2)SC(=S)N1CCC(=O)N1CCCCC1CCO (stereo unspecified) the “activity change, negative = inhibition” value was inactive: -9.21%. In the case of CCOc1ccc2nc(N=Nc3c(O)[nH]c(=S)[nH]c3=O)sc2c1, the Potency is reported as inconclusive [inhibitor, single point]. For O=C(CCCCCn1c(=S)[nH]c2cc3c(cc2c1=O)OCO3)N1CCN(Cc2ccccc2)CC1, the Potency was inconclusive [inhibitor, partial curve, poor fit]. With CCOc1cc(CNCCO)cc(Br)c1OCc1ccccc1 the Potency was active: 10 µM. In the case of Cc1ccc(C)c(OCCC(=O)Nc2cc(S(=O)(=O)N3CCCCC3)ccc2C)c1, the Potency is reported as inconclusive [inhibitor, single point]. In the case of Cc1cc(C(=O)OCC(=O)N2CCC(c3ccccc3)=N2)ccc1[N+](=O)[O-], the Potency is reported as inconclusive [inhibitor, partial curve]. For C[n+]1cn(CC(O)COCc2ccccc2)c2ccccc21 (stereo unspecified), the “activity change, negative = inhibition” value was inactive: 14.7%. In the case of Cn1ncc(Cl)c1C(=O)NCc1ccc2c(c1)OCO2, the Potency is reported as inconclusive [inhibitor, single point]. For CCOc1ccccc1C(=O)N[C@H](C(=O)OCc1cc(=O)oc2cc(C)ccc12)C(C)C, the Potency was active: 10 µM. For COc1ccc(S(=O)(=O)N(C)CC(=O)N2CCCCCC2)cc1OC, the “activity change, negative = inhibition” value was inactive: 4.44%. For CCN(CC)C1=NC=CC(c2ccccc2)=CC1C (stereo unspecified), the Potency was inconclusive [inhibitor, single point]. With CC1CN(S(=O)(=O)c2cccc(C(=O)OCC(=O)NCc3ccccc3)c2)CC(C)O1 (stereo unspecified) the “activity change, negative = inhibition” value was inactive: 17.6%. In the case of COc1ccc(Nc2nnc(SCC(=O)NC(=O)Nc3ccc4c(c3)OCCO4)s2)cc1, the Potency is reported as active: 11.2 µM. With CN1CCC(NC(=O)c2cccc(Oc3ccccc3)c2)CC1 the Potency was inconclusive [inhibitor, single point]. With O=C(NNC(=O)c1ccccc1O)c1ccc(Cl)c(S(=O)(=O)N2CCc3ccccc32)c1 the Potency was inconclusive [inhibitor, partial curve]. With COc1ccc(/C=N/Nc2nc(C)cc(=O)[nH]2)cc1OC the “activity change, negative = inhibition” value was inactive: 0.156%. For O=C(CN1CC(=O)Oc2ccccc21)OCC(=O)c1ccccc1, the “activity change, negative = inhibition” value was inactive: 0.846%. With CN(C(=O)Cn1nnc(-c2cccnc2)n1)C1CCCCC1 the “activity change, negative = inhibition” value was inactive: 4.31%. In the case of COc1ccccc1NS(=O)(=O)c1cc(NC(=O)c2ccc3c(c2)OCCO3)ccc1C, the Potency is reported as inconclusive [inhibitor, single point]. For Cc1ccc(C(C(=O)NC2CCCC2)N(Cc2ccc3c(c2)OCO3)C(=O)c2snc(C(N)=O)c2N)cc1 (stereo unspecified), the “activity change, negative = inhibition” value was inactive: -27.7%.
